We go through six molecules from US11655308B2, “HM-3 fusion protein and application thereof” (TASLY BIOPHARMACEUTICALS CO., LTD., priority 2017, dated 2023).

Data set [1] in a line: Dimer stability during protein preparation (electrophoresis). To be noted: electrophoresis after purification (FIG. 5). The data set is classed as physicochemical.
For data set [2], the system named is mice splenic lymphocyte proliferation stimulated by ConA. Type of data set: cell-based. To be noted: for inhibition rate / in vitro efficacy compared with TSL-4 control group: control: TSL-4 (P4 positive control, 12 μmol/L); for inhibition ratio of mice splenic lymphocyte proliferation relative to group ConA: second round (Table 3). The procedure:
Experimental method: mice orbit was by bloodletting to death, and immediately immersed in 75% ethanol for 5-10 min, and then the spleen was removed on a clean bench and placed in PBS. The spleen was placed on a sterile cell strainer (200 mesh) and ground with a syringe nozzle; during grinding process, PBS was added continuously; the slurry was collected and centrifuged (1000 rpm for 5 min), then cells were washed 3 times with Tris-ammonium chloride solution, and washed again with a medium, and then re-suspended in the medium. Finally, trypan blue living cell staining was performed on the cells, and the survival rate was more than 95%. The concentration of viable cells was adjusted to 2×10^6/mL. […] was added to each well of a 96-well plate, meanwhile, ConA (concanavalin to simulate splenocyte proliferation) and drugs were added to each well. Six duplicates were set in each group.
The 96-well plate was incubated for 48 h in a 5% CO2 incubator at 37° C. 5 mg/mL of MTT was added to the 96-well plate, 20 μL for each well, and then it was incubated continuously for 4 h in the incubator. The culture medium in the 96-well plate was discarded and 100 μL DMSO was added to each well and mixed gently. Absorbance was measured by a microplate reader at the wavelength of 570 nm and reference wavelength of 630 nm.
Proliferation inhibition rate (PI) was calculated according to formula:
[formula] wherein, Atest is the absorbance of dosing group, and Acontrol is the absorbance of negative control. Test results were expressed as mean±SD, and statistical T test was performed. *P<0.05 indicates significant difference, **P<0.01 indicates extremely significant difference. Based upon the results, the efficacy of the fusion protein against rheumatoid arthritis was screened.
In the P4 control group, TSL-4 fusion protein served as a control agent.

As to “HM-3-(GGGGS)3-IgG4-Fc (IVRRADRAAVPGGGGRGDGGGGSGGGGSGGGGS[human IgG4 Fc skipped]) [TSL-5]”, the “dimer stability during protein preparation” value in data set [1] is on record as “serious problem of dimer degradation”.
On the same count and under the same terms, to “IgG4-Fc-(GGGGS)3-HM-3 ([human IgG4 Fc skipped]GGGGSGGGGSGGGGSIVRRADRAAVPGGGGRGD) [TSL-6]” belongs “serious problem of dimer degradation”.

B1: mIgG4-Fc-G5-HM-3-G8-HM-3 (protein)
chain: [human IgG4 Fc with S228P F234A L235A (EU numbers) and a few adjoining residues skipped]GGGGGIVRRADRAAVPGGGGRGDGGGGGGGGIVRRADRAAVPGGGGRGD
Regarding B1, the “inhibition rate / in vitro efficacy compared with TSL-4 control group” value in data set [2] is “lower than that of TSL-4 protein”.

B2: mIgG4-Fc-A(EAAAK)4A-HM-3 (protein)
chain: [human IgG4 Fc with S228P F234A L235A (EU numbers) and a few adjoining residues skipped]AEAAAKEAAAKEAAAKEAAAKAIVRRADRAAVPGGGGRGD
In the case of B2, in data set [2], the “inhibition ratio of mice splenic lymphocyte proliferation relative to group ConA” value is on record as “improved significantly”.

B3: mIgG4-Fc-(AP)9-HM-3 (protein)
chain: [human IgG4 Fc with S228P F234A L235A (EU numbers) and a few adjoining residues skipped]APAPAPAPAPAPAPAPAPIVRRADRAAVPGGGGRGD
In the case of B3, the “inhibition ratio of mice splenic lymphocyte proliferation relative to group ConA” value in data set [2] is recorded as “improved significantly”.

B4: HM-3-(GGGGS)3-mIgG4-Fc-(GGGGS)3-HM-3 (protein)
chain: IVRRADRAAVPGGGGRGDGGGGSGGGGSGGGGSA[human IgG4 Fc with S228P F234A L235A (EU numbers) skipped]GGGGSGGGGSGGGGSIVRRADRAAVPGGGGRGD
Regarding B4, the “inhibition rate / in vitro efficacy compared with TSL-4 control group” value in data set [2] is listed as “lower than that of TSL-4 protein”.
